Assay results as given in PubChem BioAssay AID588591 (National Center for Advancing Translational Sciences (NCATS), 2011).
The campaign covered roughly 390,000 compounds. About 4,700 (1.2%) were called active. The inconclusive results got no clear call from the source; some entries with a clear call stand among them for comparison. Calls come from the whole dose curve; as a rule, active = well fitted inhibition curve with a large enough effect; inconclusive = small, poorly fitted or top-dose-only effect, or another doubt; inactive = no such curve, though single readings can be large or run the other way. A potency beside an inconclusive call is a rough fit, not a confirmed value.
Potency is the fitted concentration of half-maximal effect; tags give direction and shape of the fitted curve.

The compounds below were run against DNA polymerase eta (Homo sapiens) (UniProt Q9Y253) (assay: qHTS for Inhibitors of Polymerase Eta). Settings: recombinant Pol eta, fluorescent DNA replication assay; series mostly up to 114 µM.
Chain of UniProt Q9Y253 (Q9Y253 whole entry, looked up): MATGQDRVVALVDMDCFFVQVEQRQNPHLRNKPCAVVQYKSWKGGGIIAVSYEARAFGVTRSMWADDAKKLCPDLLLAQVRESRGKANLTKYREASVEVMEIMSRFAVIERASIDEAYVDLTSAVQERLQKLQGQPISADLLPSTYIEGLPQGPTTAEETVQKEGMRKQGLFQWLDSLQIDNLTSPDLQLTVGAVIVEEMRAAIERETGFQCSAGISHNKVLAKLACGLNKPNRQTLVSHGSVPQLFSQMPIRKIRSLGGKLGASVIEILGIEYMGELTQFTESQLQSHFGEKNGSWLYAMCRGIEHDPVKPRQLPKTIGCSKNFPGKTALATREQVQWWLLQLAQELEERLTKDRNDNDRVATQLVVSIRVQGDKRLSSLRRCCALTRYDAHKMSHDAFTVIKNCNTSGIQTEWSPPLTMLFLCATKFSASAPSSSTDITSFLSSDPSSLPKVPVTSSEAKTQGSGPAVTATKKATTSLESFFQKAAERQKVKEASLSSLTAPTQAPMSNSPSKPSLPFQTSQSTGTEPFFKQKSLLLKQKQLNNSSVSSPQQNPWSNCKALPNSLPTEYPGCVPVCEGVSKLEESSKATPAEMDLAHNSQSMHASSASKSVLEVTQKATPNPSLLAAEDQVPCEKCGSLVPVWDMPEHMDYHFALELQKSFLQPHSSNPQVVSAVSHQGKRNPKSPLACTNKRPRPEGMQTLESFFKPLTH
How it was run: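 Pol eta at 10 nM preincubated with compounds 15 min at room temperature; reaction started with fluorescent substrate (50 nM final) and read kinetically at 0 and 10 min.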
In the case of `O=C(COc1ccccc1[N+](=O)[O-])Nc1ccc(NC(=O)c2cc3ccccc3o2)cc1`, the Potency is reported as inconclusive: 63.1 µM [inhibitor, partial curve]. In the case of `COc1ccccc1NS(=O)(=O)c1ccc(N/N=C/c2ccccc2OCC(=O)O)c([N+](=O)[O-])c1`, the Potency is reported as inconclusive: 50.1 µM [inhibitor, partial curve, poor fit]. With `CCOc1ccc2c(c1)c(=O)c(C(=O)c1ccc(CC)cc1)cn2CC(=O)Nc1ccc2c(c1)OCCO2` the Potency was “inactive”. In the case of `O=C(NC1CCCC1)C(c1ccc(Cl)cc1)N(Cc1ccc(F)cc1)C(=O)CCl` (centres undefined), the Potency is reported as inconclusive: 39.8 µM [inhibitor, partial curve, poor fit]. In the case of `CCOC(=O)C1CCN(C(=O)CCc2nnc3ccc(N4CCC(C)CC4)nn23)CC1`, the Potency is reported as “inactive”. `CCN1/C(=C/C=C/c2oc3ccc(-c4ccccc4)cc3[n+]2CC)Oc2ccc(-c3ccccc3)cc21` was tested, and the Potency was inconclusive: 20 µM [inhibitor, partial curve, poor fit]. In the case of `COC(=O)c1c(NC(=O)/C=C/C(=O)O)sc(C)c1-c1ccc(C(C)C)cc1`, the Potency is reported as active: 79.4 µM. With `Cc1ccc(NC(=O)Cn2c(=O)n(Cc3ccccc3)c(=O)c3c(C)c(C(=O)N(C)C)sc32)c(C)c1` the Potency was “inactive”. In the case of `CCN(CC)c1ccc(NC(=S)NC(=O)c2ccco2)cc1`, the Potency is reported as “inactive”. For `O=C(NC(=S)N1CCN(C/C=C/c2ccccc2)CC1)c1ccc(Cl)nc1`, the Potency was “inactive”. With `CN(C)c1ccc(/C=C/C(=O)c2ccccc2O)cc1` the Potency was inconclusive: 89.1 µM [inhibitor, single point]. With `Cc1ccc(OCCC(=O)N(CC(=O)Nc2ccccc2C(F)(F)F)Cc2ccco2)cc1` the Potency was inconclusive: 35.5 µM [inhibitor, single point]. `Oc1cccc(/C=N/NC(=S)Nc2cccnc2)c1O` was tested, and the Potency was active: 20 µM. With `COc1ccc(NC(=O)Cn2cc(C(=O)c3ccc(C)c(C)c3)c(=O)c3cc(OC)ccc32)cc1` the Potency was “inactive”. With `O=C(CSc1ccc2ccccc2c1)NCCc1ccc(O)c(O)c1` the Potency was “inactive”. `Cc1ccc(OCC(=O)NNC(=O)C(C)Sc2ncnc3sc(C)c(C)c23)cc1` (centres undefined) was tested, and the Potency was inconclusive: 15.8 µM [inhibitor, partial curve]. For `Cc1noc(C)c1C(=O)N(CC(C)C)c1nc2ccccc2s1`, the Potency was inconclusive: 89.1 µM [inhibitor, partial curve, poor fit]. For `O=C1CC(C(F)(F)C(F)(F)C(F)(F)C(F)(F)F)=Nc2ccccc2N1`, the Potency was inconclusive: 79.4 µM [inhibitor, partial curve, poor fit]. With `Cc1[nH]c(=O)c(C(=O)/C=C/c2ccccc2F)c2c1CCCC2` the Potency was inconclusive: 89.1 µM [inhibitor, single point]. In the case of `O=C1CCC/C=C/C[C@H](CC(=O)N(CCO)Cc2ccccc2)C(=O)N[C@@H](Cc2ccccc2)CO1`, the Potency is reported as “inactive”. With `CC(=O)OCC1OC(n2c(-c3ccc(Cl)cc3)ccc(C#N)c2=S)C(OC(C)=O)C(OC(C)=O)C1OC(C)=O` (centres undefined) the Potency was inconclusive: 39.8 µM [inhibitor, partial curve, poor fit]. For `CCOC(=O)c1c(C)[nH]c(C)c1S(=O)(=O)N1CCN(c2cc(Cl)ccc2C)CC1`, the Potency was inconclusive: 79.4 µM [inhibitor, partial curve, poor fit]. For `Cc1ccc(-c2csc3nc(-c4ccncc4)[nH]c(=O)c23)cc1`, the Potency was inconclusive: 22.4 µM [inhibitor, partial curve, poor fit]. `CCN(CC)CCCNC(=O)c1ccc2c(c1)sc1nc(-c3ccc(C)cc3)cn12` was tested, and the Potency was inconclusive: 89.1 µM [inhibitor, partial curve, poor fit]. For `O=C(O)CCn1c(C2CCCCC2)nc2ccccc21`, the Potency was inconclusive: 100 µM [inhibitor, partial curve, poor fit]. With `COc1ccc(-c2nc3ccccc3o2)cc1NC(=O)c1cccnc1` the Potency was inconclusive: 89.1 µM [inhibitor, partial curve, poor fit]. `Cc1ccc(Cl)cc1NC(=O)CCn1cccc1` was tested, and the Potency was inconclusive: 31.6 µM [inhibitor, single point]. In the case of `Cc1c(Br)c(O)c(Br)c2sc(=O)oc12`, the Potency is reported as inconclusive: 89.1 µM [inhibitor, partial curve, poor fit]. With `Cc1ccccc1N=Cc1cccc(O)c1O` the Potency was inconclusive: 22.4 µM [inhibitor, partial curve, poor fit]. In the case of `Cc1ccc(-c2nnn(CC(=O)Nc3ccc4nn(-c5ccccc5)nc4c3)n2)o1`, the Potency is reported as “inactive”. With `CC(OC(=O)c1ccccc1NCc1ccco1)C(=O)Nc1ncc(Cl)cc1Cl` (centres undefined) the Potency was inconclusive: 28.2 µM [inhibitor, partial curve, poor fit]. In the case of `CN(C)/C=C/C(=O)c1ccc(N2CCN(c3ncc(C(F)(F)F)cc3Cl)CC2)cc1`, the Potency is reported as inconclusive: 25.1 µM [inhibitor, partial curve, poor fit]. `CN(C)S(=O)(=O)c1ccc(C(=O)OCC(=O)NCc2ccco2)cc1` was tested, and the Potency was “inactive”. `CC1(C)CC(=O)C2=C(C1)N1C(=C(C#N)C2c2ccc(Cl)cc2)N=C(N)c2ccccc21` (centres undefined) was tested, and the Potency was inconclusive: 100 µM [inhibitor, partial curve, poor fit]. With `CCCCSc1[nH]c(=O)c(C(=O)OCC)cc1C#N` the Potency was inconclusive: 39.8 µM [inhibitor, partial curve, poor fit]. `CC(=C\c1ccccc1)/C=C1/SC(=S)N(CCC(=O)O)C1=O` was tested, and the Potency was inconclusive: 22.4 µM [inhibitor, partial curve, poor fit]. With `O=C(Cc1cccs1)Nc1nncs1` the Potency was inconclusive: 100 µM [inhibitor, single point]. For `COC(=O)c1c(C)nc2c(c(SC)nn2-c2ccccc2)c1N`, the Potency was inconclusive: 79.4 µM [inhibitor, partial curve, poor fit]. With `CC1=C(C(=O)OC(C)C)C(c2ccco2)NC(=O)N1` (centres undefined) the Potency was inconclusive: 12.6 µM [inhibitor, partial curve, poor fit]. For `Cc1cccc(NC(=O)c2cn(-c3ccccc3)nc2-c2ccccc2)c1C`, the Potency was “inactive”. In the case of `COc1cccc(NS(=O)(=O)c2ccc3[nH]cc(C(=O)NC(C)c4ccccc4)c(=O)c3c2)c1` (centres undefined), the Potency is reported as inconclusive: 79.4 µM [inhibitor, single point]. `COc1ccc(N(CC(=O)Nc2ccc(C)cc2)S(=O)(=O)c2c(C)noc2C)cc1` was tested, and the Potency was “inactive”. `O=C(NN1C(=O)c2cc(Br)ccc2NC1c1cc(Br)cc(Br)c1O)c1ccncc1` (centres undefined) was tested, and the Potency was inconclusive: 31.6 µM [inhibitor, partial curve, poor fit]. For `O=C(COC(=O)COc1ccc(Cl)cc1Cl)NC1CCCCCC1`, the Potency was inconclusive: 89.1 µM [inhibitor, partial curve, poor fit]. In the case of `CCC(C)NC(=O)c1cc2cc3ccc(OC)cc3nc2s1` (centres undefined), the Potency is reported as inconclusive: 89.1 µM [inhibitor, partial curve, poor fit]. For `Cc1ccc(-n2c(=O)c3c(cnn3C)n(CC(=O)Nc3cccc(Cl)c3)c2=O)cc1`, the Potency was “inactive”. With `O=C(O)C(S)C(S)C(=O)O` (centres undefined) the Potency was inconclusive: 35.5 µM [inhibitor, full curve, poor fit]. With `CC1(OC(=O)CCc2ccccc2)C(=O)C=C2C=C3CCCN3C=C2C1=O` (centres undefined) the Potency was active: 44.7 µM. For `O=C(O)/C(=C\c1ccco1)NC(=O)c1ccco1`, the Potency was inconclusive: 31.6 µM [inhibitor, partial curve]. In the case of `Cc1ccsc1C1NC(=O)c2c(sc3c2CCCC3)N1` (centres undefined), the Potency is reported as inconclusive: 14.1 µM [inhibitor, full curve, poor fit]. In the case of `CCC(c1nnnn1CCOC)N(Cc1ccc(C)cc1)Cc1cc2cc(OC)ccc2[nH]c1=O` (centres undefined), the Potency is reported as inconclusive: 56.2 µM [inhibitor, partial curve, poor fit]. In the case of `COc1ccc(/C=C2\SC(=O)NC2=S)cc1OC`, the Potency is reported as inconclusive: 50.1 µM [inhibitor, partial curve]. In the case of `Cn1nnc(NC(=S)NC(=O)/C=C/c2ccco2)n1`, the Potency is reported as active: 17.8 µM. `COc1ccc(N2CSC3=C(C#N)C(c4ccc(OC)c(OC)c4)CC(=O)N3C2)c(OC)c1` (centres undefined) was tested, and the Potency was “inactive”. With `OCCn1c(CSc2nnc(-c3ccco3)n2-c2ccccc2)nc2ccc(Cl)cc21` the Potency was inconclusive: 79.4 µM [inhibitor, single point]. `CCOC(=O)c1c(C)[nH]c(C(=O)CSc2ccccc2)c1C` was tested, and the Potency was inconclusive: 79.4 µM [inhibitor, partial curve, poor fit]. In the case of `O=C(CCn1c(SCC(=O)NCc2ccco2)nc2ccccc2c1=O)NCCc1ccccc1`, the Potency is reported as inconclusive: 35.5 µM [inhibitor, partial curve, poor fit]. `O=C(O)C1OC(Oc2c(-c3ccc(O)c(O)c3)oc3cc(O)cc(O)c3c2=O)C(O)C(O)C1O` (centres undefined) was tested, and the Potency was active: 6.31 µM. With `O=C(CSc1ccccc1C(=O)O)NCC1CCCCC1` the Potency was inconclusive: 50.1 µM [inhibitor, partial curve, poor fit]. In the case of `COc1cc(Cl)c(C)cc1NC(=O)CSc1cc(Cl)ccc1Cl`, the Potency is reported as inconclusive: 20 µM [inhibitor, full curve]. For `COCCCNC(=O)NC(=O)c1ccccc1`, the Potency was “inactive”. `O=C(CCS(=O)(=O)c1ccccc1)Nc1nc2cc3c(cc2s1)OCO3` was tested, and the Potency was inconclusive: 79.4 µM [inhibitor, partial curve]. For `CCC1=NN2C(=N)/C(=C\c3cccn3-c3ccc(Cl)cc3)C(=O)N=C2S1`, the Potency was inconclusive: 56.2 µM [inhibitor, partial curve, poor fit]. In the case of `COCCN1C(=O)C(O)=C(C(C)=O)C1c1ccc(OC)c(OC)c1` (centres undefined), the Potency is reported as inconclusive: 79.4 µM [inhibitor, single point].
